Data: the supplement of paper PMC8728848
This is one part of the list.

Columns and labels:
Assay in all cases: glycan array binding signal (z-score within array); higher = stronger binding
Settings in all cases: glycan notation: IUPAC condensed, linker removed
[1] = biological target: Gal(b1-3)Gal
Method in brief: (§1)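 Glycan array data were curated from 3228 arrays in the Consortium for Functional Glycomics database and kept only where the protein sequence was available. Glycan names were converted to IUPAC-condensed notation, and columns mapping to the same glycan were averaged. The binding signal is a within-array Z-score, averaged across arrays of the same protein sequence at different concentrations or buffers and across linkers. Negative Z-scores can be read as non-binding.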

[2] = biological target: Gal(b1-3)Gal(b1-4)GlcNAc
Method in brief: as §1

[3] = biological target: Gal(b1-3)GalNAc
Method in brief: as §1

[4] = biological target: Gal(b1-3)GalNAc(a1-3)[Fuc(a1-2)]Gal(b1-4)Glc
Method in brief: as §1

[5] = biological target: Gal(b1-3)GalNAc(a1-3)[Fuc(a1-2)]Gal(b1-4)GlcNAc
Method in brief: as §1

[6] = biological target: Gal(b1-3)GalNAc(b1-3)Gal
Method in brief: as §1

[7] = biological target: Gal(b1-3)GalNAc(b1-3)Gal(a1-4)Gal(b1-4)Glc
Method in brief: as §1

[8] = biological target: Gal(b1-3)GalNAc(b1-4)Gal(b1-4)Glc
Method in brief: as §1

[9] = biological target: Gal(b1-3)GalNAc(b1-4)[Neu5Ac(a2-3)]Gal(b1-4)Glc
Method in brief: as §1

[10] = biological target: Gal(b1-3)GlcNAc
Method in brief: as §1

[11] = biological target: Gal(b1-3)GlcNAc(a1-3)Gal(b1-4)GlcNAc
Method in brief: as §1

[12] = biological target: Gal(b1-3)GlcNAc(a1-6)Gal(b1-4)GlcNAc
Method in brief: as §1

[13] = biological target: Gal(b1-3)GlcNAc(b1-2)Man
Method in brief: as §1

[14] = biological target: Gal(b1-3)GlcNAc(b1-2)Man(a1-3)[Gal(b1-3)GlcNAc(b1-2)Man(a1-6)]Man(b1-4)GlcNAc(b1-4)GlcNAc
Method in brief: as §1

[15] = biological target: Gal(b1-3)GlcNAc(b1-2)Man(a1-3)[Gal(b1-3)GlcNAc(b1-2)Man(a1-6)]Man(b1-4)GlcNAc(b1-4)[Fuc(a1-6)]GlcNAc
Method in brief: as §1

[16] = biological target: Gal(b1-3)GlcNAc(b1-2)Man(a1-3)[GlcNAc(b1-4)][Gal(b1-3)GlcNAc(b1-2)Man(a1-6)]Man(b1-4)GlcNAc(b1-4)GlcNAc
Method in brief: as §1

[17] = biological target: Gal(b1-3)GlcNAc(b1-2)[Gal(b1-3)GlcNAc(b1-6)]Man(a1-6)[Gal(b1-3)GlcNAc(b1-2)Man(a1-3)]Man(b1-4)GlcNAc(b1-4)GlcNAc
Method in brief: as §1

[18] = biological target: Gal(b1-3)GlcNAc(b1-3)Gal(b1-3)GlcNAc
Method in brief: as §1

[19] = biological target: Gal(b1-3)GlcNAc(b1-3)Gal(b1-4)Glc
Method in brief: as §1

[20] = biological target: Gal(b1-3)GlcNAc(b1-3)Gal(b1-4)GlcNAc
Method in brief: as §1

[21] = biological target: Gal(b1-3)GlcNAc(b1-3)Gal(b1-4)GlcNAc(b1-2)Man(a1-3)[Gal(b1-3)GlcNAc(b1-3)Gal(b1-4)GlcNAc(b1-2)Man(a1-6)]Man(b1-4)GlcNAc(b1-4)GlcNAc
Method in brief: as §1

[22] = biological target: Gal(b1-3)GlcNAc(b1-3)Gal(b1-4)GlcNAc(b1-2)[Gal(b1-3)GlcNAc(b1-3)Gal(b1-4)GlcNAc(b1-6)]Man(a1-6)[Gal(b1-3)GlcNAc(b1-3)Gal(b1-4)GlcNAc(b1-2)Man(a1-3)]Man(b1-4)GlcNAc(b1-4)[Fuc(a1-6)]GlcNAc
Method in brief: as §1

[23] = biological target: Gal(b1-3)GlcNAc(b1-3)Gal(b1-4)GlcNAc(b1-3)Gal(b1-4)GlcNAc(b1-2)[Gal(b1-3)GlcNAc(b1-3)Gal(b1-4)GlcNAc(b1-3)Gal(b1-4)GlcNAc(b1-6)]Man(a1-6)[Gal(b1-3)GlcNAc(b1-3)Gal(b1-4)GlcNAc(b1-3)Gal(b1-4)GlcNAc(b1-2)Man(a1-3)]Man(b1-4)GlcNAc(b1-4)[Fuc(a1-6)]GlcNAc
Method in brief: as §1

[24] = biological target: Gal(b1-3)GlcNAc(b1-3)Gal(b1-4)GlcNAc(b1-6)[Gal(b1-3)GlcNAc(b1-3)]Gal(b1-4)Glc
Method in brief: as §1

[25] = biological target: Gal(b1-3)GlcNAc(b1-3)Gal(b1-4)[Fuc(a1-3)]GlcNAc
Method in brief: as §1

[26] = biological target: Gal(b1-3)GlcNAc(b1-3)Gal(b1-4)[Fuc(a1-3)]GlcNAc(b1-6)[Gal(b1-3)GlcNAc(b1-3)]Gal(b1-4)Glc
Method in brief: as §1

[27] = biological target: Gal(b1-3)GlcNAc(b1-3)GalNAc
Method in brief: as §1

[28] = biological target: Gal(b1-3)GlcNAc(b1-6)Gal(b1-4)GlcNAc
Method in brief: as §1

[29] = biological target: Gal(b1-3)GlcNAc(b1-6)GalNAc
Method in brief: as §1

[30] = biological target: Gal(b1-3)GlcNAc(b1-6)[Gal(b1-3)]GalNAc
Method in brief: as §1

[31] = biological target: Gal(b1-3)GlcNAc6S
Method in brief: as §1

[32] = biological target: Gal(b1-3)[Fuc(a1-4)]GlcNAc
Method in brief: as §1

[33] = biological target: Gal(b1-3)[Fuc(a1-4)]GlcNAc(b1-2)Man
Method in brief: as §1

[34] = biological target: Gal(b1-3)[Fuc(a1-4)]GlcNAc(b1-2)Man(a1-3)[Gal(b1-3)[Fuc(a1-4)]GlcNAc(b1-2)Man(a1-6)]Man(b1-4)GlcNAc(b1-4)[Fuc(a1-6)]GlcNAc
Method in brief: as §1

[35] = biological target: Gal(b1-3)[Fuc(a1-4)]GlcNAc(b1-3)Gal(b1-3)[Fuc(a1-4)]GlcNAc
Method in brief: as §1

[36] = biological target: Gal(b1-3)[Fuc(a1-4)]GlcNAc(b1-3)Gal(b1-4)[Fuc(a1-3)]GlcNAc
Method in brief: as §1

[37] = biological target: Gal(b1-3)[Fuc(a1-4)]GlcNAc(b1-6)GalNAc
Method in brief: as §1

[38] = biological target: Gal(b1-3)[GlcNAc(b1-6)]GalNAc
Method in brief: as §1

[39] = biological target: Gal(b1-3)[Neu5Ac(a2-6)]GalNAc
Method in brief: as §1

[40] = biological target: Gal(b1-3)[Neu5Ac(a2-6)]GlcNAc(b1-4)Gal(b1-4)Glc
Method in brief: as §1

[41] = biological target: Gal(b1-3)[Neu5Ac(b2-6)]GalNAc
Method in brief: as §1

[42] = biological target: Gal(b1-4)Gal
Method in brief: as §1

[43] = biological target: Gal(b1-4)GalNAc(a1-3)[Fuc(a1-2)]Gal(b1-4)GlcNAc
Method in brief: as §1

[44] = biological target: Gal(b1-4)GalNAc(b1-3)[Fuc(a1-2)]Gal(b1-4)GlcNAc
Method in brief: as §1

[45] = biological target: Gal(b1-4)Glc
Method in brief: as §1

B1: Clrb (Mus musculus) (protein)
chain: ITGATKTEQIPVNKTYAACPQNWIGVENKCFYFSEYPSNWTFAQAFCMAQEAQLARFDNQDELNFLMRYKANFDSWIGLHRESSEHPWKWTDNTEYNNTIPIRGEERFAYLNNNGISSTRIYSLRMWICSKLNSYSLHCQTPFFPSGTKHHHHHHHHG
With B1 the “glycan array binding signal (z-score)” value [1] was -0.427, the “glycan array binding signal (z-score)” value [2] was -0.335 and the “glycan array binding signal (z-score)” value [3] was -0.409. For the same binder, the “glycan array binding signal (z-score)” value [4] was -0.432, the “glycan array binding signal (z-score)” value [5] was -0.313 and the “glycan array binding signal (z-score)” value [6] was -0.385. For the same binder, the “glycan array binding signal (z-score)” value [7] was -0.383, the “glycan array binding signal (z-score)” value [8] was -0.341 and the “glycan array binding signal (z-score)” value [9] was -0.45. For the same binder, the “glycan array binding signal (z-score)” value [10] was -0.411, the “glycan array binding signal (z-score)” value [11] was -0.251 and the “glycan array binding signal (z-score)” value [12] was -0.468. The “glycan array binding signal (z-score)” value [13] was -0.302, the “glycan array binding signal (z-score)” value [14] was -0.404 and the “glycan array binding signal (z-score)” value [15] was -0.205. For the same binder, the “glycan array binding signal (z-score)” value [16] was 0.722, the “glycan array binding signal (z-score)” value [17] was -0.249 and the “glycan array binding signal (z-score)” value [18] was -0.431. The “glycan array binding signal (z-score)” value [19] was -0.439, the “glycan array binding signal (z-score)” value [20] was -0.135 and the “glycan array binding signal (z-score)” value [21] was -0.139. For the same binder, the “glycan array binding signal (z-score)” value [22] was -0.14, the “glycan array binding signal (z-score)” value [23] was -0.13 and the “glycan array binding signal (z-score)” value [24] was -0.396. The “glycan array binding signal (z-score)” value [25] was -0.121, the “glycan array binding signal (z-score)” value [26] was -0.292 and the “glycan array binding signal (z-score)” value [27] was -0.536. For the same binder, the “glycan array binding signal (z-score)” value [28] was -0.399, the “glycan array binding signal (z-score)” value [29] was -0.373 and the “glycan array binding signal (z-score)” value [30] was -0.424. For the same binder, the “glycan array binding signal (z-score)” value [31] was -0.362, the “glycan array binding signal (z-score)” value [32] was -0.303 and the “glycan array binding signal (z-score)” value [33] was -0.176. The “glycan array binding signal (z-score)” value [34] was -0.438, the “glycan array binding signal (z-score)” value [35] was -0.404 and the “glycan array binding signal (z-score)” value [36] was -0.336. The “glycan array binding signal (z-score)” value [37] was -0.534, the “glycan array binding signal (z-score)” value [38] was -0.186 and the “glycan array binding signal (z-score)” value [39] was -0.193. For the same binder, the “glycan array binding signal (z-score)” value [40] was -0.219, the “glycan array binding signal (z-score)” value [41] was -0.15 and the “glycan array binding signal (z-score)” value [42] was -0.439. The “glycan array binding signal (z-score)” value [43] was -0.379, the “glycan array binding signal (z-score)” value [44] was -0.353 and the “glycan array binding signal (z-score)” value [45] was -0.305.
